# Data taken from the supplement of paper PMC4604168 (melanoma cell lines).
# This is one part of the list. Repeats are few or missing, and single values can be far off.
# Tested on: G361
# Test: cell count relative to DMSO control; melanoma cells; higher = more viable cells
# Details: library dose: standard library concentration; 72 h
# 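Note: cells treated in 1,536-well plates, then fixed and DAPI-stained, with nuclei counted from automated high-throughput microscope images.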
row,SMILES,cell count [%]
1,"CCCS(=O)(=O)Nc1ccc(F)c(C(=O)c2c[nH]c3ncc(Cl)cc23)c1F + COc1ccc2c(c1)CCC1C2CCC2(C)C(NCCCCCCN3C(=O)C=CC3=O)CCC12 [U73122] (first compound 0.4 µM, partner dose 2 µM)",94
2,"CCCS(=O)(=O)Nc1ccc(F)c(C(=O)c2c[nH]c3ncc(Cl)cc23)c1F + C#Cc1cccc(Nc2ncnc3cc(OCCOC)c(OCCOC)cc23)c1 [erlotinib] (first compound 0.4 µM, partner dose 4 µM)",44.8
3,"CS(=O)(=O)c1ccc(C(=O)Nc2ccc(Cl)c(-c3ccccn3)c2)c(Cl)c1 [vismodegib] + COc1ccc(Cl)c(Nc2nc3ccccc3nc2NS(=O)(=O)c2cccc(NC(=O)C(C)(C)N)c2)c1 [XL147] (first compound 5 µM, partner dose 4 µM)",69.1
4,"CS(=O)(=O)c1ccc(C(=O)Nc2ccc(Cl)c(-c3ccccn3)c2)c(Cl)c1 [vismodegib] + Cn1c(Nc2ccc(C(F)(F)F)cc2)nc2cc(Oc3ccnc(-c4ncc(C(F)(F)F)[nH]4)c3)ccc21 [CHIR265] (first compound 5 µM, partner dose 0.4 µM)",34.6
5,"C=C(c1ccc(C(=O)O)cc1)c1cc2c(cc1C)C(C)(C)CCC2(C)C [Bexarotene] + C=CCn1c(=O)c2cnc(Nc3ccc(N4CCN(C)CC4)cc3)nc2n1-c1cccc(C(C)(C)O)n1 [MK1775] (first compound 10 µM, partner dose 0.1 µM)",83.7
6,"CS(=O)(=O)c1ccc(C(=O)Nc2ccc(Cl)c(-c3ccccn3)c2)c(Cl)c1 [vismodegib] + Oc1cc(-c2nc(-c3ccccc3)[nH]c2-c2ccncc2)ccc1Cl [L779450] (first compound 5 µM, partner dose 1 µM)",51.1
7,"CN(c1ncccc1CNc1nc(Nc2ccc3c(c2)CC(=O)N3)ncc1C(F)(F)F)S(C)(=O)=O + C=C(c1ccc(C(=O)O)cc1)c1cc2c(cc1C)C(C)(C)CCC2(C)C [Bexarotene] (first compound 0.4 µM, partner dose 10 µM)",70.6
8,"CS(=O)(=O)c1ccc(C(=O)Nc2ccc(Cl)c(-c3ccccn3)c2)c(Cl)c1 [vismodegib] + O=C1NC(=O)/C(=C/c2ccc(-c3ccc(F)cc3O)o2)S1 [AS252424] (first compound 5 µM, partner dose 5 µM)",93.2
9,"NC1(c2ccc(-c3nc4ccn5c(=O)[nH]nc5c4cc3-c3ccccc3)cc2)CCC1 + CN(NC(=O)CC(=O)NN(C)C(=S)c1ccccc1)C(=S)c1ccccc1 [STA4783] (first compound 2 µM, partner dose 0.03 µM)",46.6
10,"CS(=O)(=O)c1ccc(C(=O)Nc2ccc(Cl)c(-c3ccccn3)c2)c(Cl)c1 [vismodegib] + NC1(c2ccc(-c3nc4ccn5c(=O)[nH]nc5c4cc3-c3ccccc3)cc2)CCC1 [MK2206] (first compound 5 µM, partner dose 2 µM)",75.5
11,"CN(c1ncccc1CNc1nc(Nc2ccc3c(c2)CC(=O)N3)ncc1C(F)(F)F)S(C)(=O)=O + O=C(CCCCCCC(=O)Nc1ccccc1)NO [vorinostat] (first compound 0.4 µM, partner dose 0.4 µM)",59.8
12,"CS(=O)(=O)c1ccc(C(=O)Nc2ccc(Cl)c(-c3ccccn3)c2)c(Cl)c1 [vismodegib] + Nc1ncn([C@H]2C[C@H](O)[C@@H](CO)O2)c(=O)n1 [decitabine] (first compound 5 µM, partner dose 0.5 µM)",113
13,"CN(c1ncccc1CNc1nc(Nc2ccc3c(c2)CC(=O)N3)ncc1C(F)(F)F)S(C)(=O)=O + O=C(Nc1cccc(Cl)c1)Nc1ncc(CCNc2ncnc3ccsc23)s1 [SNS314] (first compound 0.4 µM, partner dose 0.004 µM)",57.9
14,"C=C(c1ccc(C(=O)O)cc1)c1cc2c(cc1C)C(C)(C)CCC2(C)C [Bexarotene] + COc1ccc(-c2ccc3c(N4CCOCC4)nc(N4C[C@@H](C)O[C@@H](C)C4)nc3n2)cc1CO [KU0063794] (first compound 10 µM, partner dose 0.1 µM)",89.5
15,"C=C(c1ccc(C(=O)O)cc1)c1cc2c(cc1C)C(C)(C)CCC2(C)C [Bexarotene] + Cn1cncc1[C@@](N)(c1ccc(Cl)cc1)c1ccc2c(c1)c(-c1cccc(Cl)c1)cc(=O)n2C [tipifarnib] (first compound 10 µM, partner dose 0.05 µM)",85.1
